Test results from article PMC4336329 (PLoS ONE, 2015).
In all, about 310,000 compounds went through this assay and about 14,000 (4.5%) showed an effect of 50% or more. Effects have a minus sign here. The list shows a part of the results.

Biological target: human ether-à-go-go-related gene (hERG) potassium channel (human, UniProt Q12809)
Experiment: primary screen, population patch clamp on CHO cells stably expressing hERG
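Note: peak tail current of the secondary pulse compared with the same well before compound.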

Chain of human ether-à-go-go-related gene (hERG) potassium channel (Q12809 whole entry, looked up): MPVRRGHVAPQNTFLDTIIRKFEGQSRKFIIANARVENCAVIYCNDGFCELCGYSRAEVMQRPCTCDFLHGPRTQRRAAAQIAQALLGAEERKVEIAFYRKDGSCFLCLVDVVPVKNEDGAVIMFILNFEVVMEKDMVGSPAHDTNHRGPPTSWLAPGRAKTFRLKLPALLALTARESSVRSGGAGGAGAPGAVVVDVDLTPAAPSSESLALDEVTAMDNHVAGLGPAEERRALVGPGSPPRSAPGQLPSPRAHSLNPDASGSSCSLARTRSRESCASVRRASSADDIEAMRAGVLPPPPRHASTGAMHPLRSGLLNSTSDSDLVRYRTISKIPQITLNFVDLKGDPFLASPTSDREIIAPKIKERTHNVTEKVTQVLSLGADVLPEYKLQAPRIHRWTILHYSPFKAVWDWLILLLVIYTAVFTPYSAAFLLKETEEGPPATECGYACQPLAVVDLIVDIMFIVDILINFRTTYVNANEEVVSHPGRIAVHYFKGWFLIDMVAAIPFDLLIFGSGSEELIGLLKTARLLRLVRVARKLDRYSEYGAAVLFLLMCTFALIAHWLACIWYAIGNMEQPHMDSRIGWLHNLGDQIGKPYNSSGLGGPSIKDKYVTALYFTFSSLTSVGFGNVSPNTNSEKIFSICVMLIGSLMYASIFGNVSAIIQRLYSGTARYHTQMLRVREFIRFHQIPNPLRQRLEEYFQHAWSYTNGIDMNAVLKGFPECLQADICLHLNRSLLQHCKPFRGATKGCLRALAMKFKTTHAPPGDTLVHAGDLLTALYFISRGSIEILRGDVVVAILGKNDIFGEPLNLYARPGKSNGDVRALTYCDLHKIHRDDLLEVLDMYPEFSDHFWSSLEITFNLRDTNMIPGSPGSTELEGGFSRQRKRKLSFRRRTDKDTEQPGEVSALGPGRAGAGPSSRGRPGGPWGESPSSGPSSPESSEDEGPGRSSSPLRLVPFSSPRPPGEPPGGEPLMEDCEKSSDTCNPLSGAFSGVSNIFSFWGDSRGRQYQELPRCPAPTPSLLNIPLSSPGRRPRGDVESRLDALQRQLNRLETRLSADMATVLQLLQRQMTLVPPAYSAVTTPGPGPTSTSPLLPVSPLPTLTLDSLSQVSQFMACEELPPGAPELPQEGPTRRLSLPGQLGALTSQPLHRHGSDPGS

Structure (SMILES) | hERG current change (%, negative = inhibition) at 10uM [%]
C=COCCNC(=O)C1CC(=O)N(c2ccc(C)cc2)C1 (stereo not drawn) | -2.77
Cc1ccc(S(=O)(=O)Nc2c(C(=O)O)[nH]c3ccccc23)c(C)c1 | 8.39
COc1cc(=O)n2c(n1)SCCC2 | 15.9
CC(C)(C)c1ccc(OCC(=O)OCCNC(=O)c2cccnc2)cc1.Cl | -14.7
Cc1nn(C(C)c2n[nH]c(=S)n2-c2ccc(F)cc2)c(C)c1[N+](=O)[O-] (stereo not drawn) | 13.3
O=C(c1ccccc1)c1ccccn1 | 2.58
COCc1c(C(C)C)nc(C(C)C)c(/C=C/[C@@H](O)C[C@@H](O)CC(=O)[O-])c1-c1ccc(F)cc1.[Na+] | 17.9
O=S(=O)(NCc1ccccn1)c1cc(C(F)(F)F)ccc1Cl | 22.5
Cc1nc(SCC(=O)Nc2ccccc2)c2oc3ccccc3c2n1 | 8.96
COc1ccc2nc(NNC(=O)C3COc4ccccc4O3)sc2c1 (stereo not drawn) | -15.1
O=C(CSCc1ccc([N+](=O)[O-])cc1)NC1CC2CCC1C2 (stereo not drawn) | -15.3
CCOc1ccc(CCNS(=O)(=O)c2cnc[nH]2)cc1OCC | 20.1
CC(C)c1csc(CN2CCN(Cc3ccc(F)cc3)C(CCO)C2)n1 (stereo not drawn) | -35.3
COc1ccccc1NC(=S)N1CCC(NC(=O)NC23CC4CC(CC(C4)C2)C3)CC1 | -7.81
[Br-].c1ccc(Cn2c(-c3ccccc3)c[n+]3c2SCCC3)cc1 | -70.9
Cc1cc(C)c(S(=O)(=O)c2ccc(Cl)cc2)c(=O)[nH]1 | 5.18
O=C(NCC1([N+](=O)[O-])CN(C(=O)c2ccccc2)CN(C(=O)c2ccccc2)C1)c1ccccc1 | -5.14
CC(C)(C)OC(=O)N1CCC(NC(=O)c2[nH]cnc2C(=O)N[C@@H](Cc2ccccc2)C(=O)OCc2ccccc2)CC1 | 12.9
O=C(O)c1ccc(CS(=O)c2cccc(C(F)(F)F)c2)o1 (stereo not drawn) | -4.59
NNC(=O)[C@H]1C[C@@H]1c1ccccc1 | -0.643
CC(O)Cc1cn([C@@H](CCCCN)C(=O)N2CCNCC2)nn1.Cl (stereo partly drawn) | 1.06
Cc1cc(=O)oc2c(C)c(OC(C)C(=O)NCCCn3ccnc3)ccc12 (stereo not drawn) | -18.6
CCOc1cc(/C=N/N=C(\N)c2nonc2N)cc(Br)c1OCc1cccc2ccccc12 | 18.5

Structure (SMILES) | hERG current change (%, negative = inhibition) at 10uM [%]
COc1cccc(CNS(=O)(=O)c2ccc3c(c2)CCN3C(=O)C2CC2)c1 | -0.982
CCOc1ccc2nc(NC(=O)Nc3ccccc3)sc2c1 | 10.4
FC(F)(F)C1CCCN(c2nsc3ccccc23)C1 (stereo not drawn) | 19.1
O=C(O)COCC(=O)N1CCc2c([nH]c3ccccc23)C1C(F)(F)F (stereo not drawn) | 2.14
COc1ccc(NC(=O)c2ccccc2NC(=O)COc2ccccc2)cc1 | -7.75
C=CCn1c(=O)c(C(=O)OCC)c(O)c2ccccc21 | 20
CCOC(=O)CCC(=O)Nc1ccc(S(=O)(=O)N2CCCC2)cc1 | -4.19
Cn1c(C2CCCCC2)nc2c1c(=O)[nH]c(=O)n2Cc1ccccc1 | -49.7
COc1ccc(OCc2nnc(SCC(=O)Nc3ccc(C)cc3)o2)cc1 | 19.5
COc1ccc(C(=O)NC(=S)N2CCOCC2)cc1OC | -0.236
N=C1/C(=C\c2ccc(OC(=O)c3ccco3)cc2)C(=O)N=C2SC(N3CCCCC3)=NN12 | 23
CCC(C)NC(=O)c1cn(-c2cccc(C)n2)cn1 (stereo not drawn) | -2.74
CCc1cc(C(=O)Nc2ncccc2O)sc1C | 5.71
CC(C)(CO)NCC(=O)Nc1cc(C(F)(F)F)cc(NC(=O)CNC(C)(C)CO)c1Cl | 8.09
CCCn1c(=O)[nH]c(=O)c2c1nc(-c1ccccc1OC(F)F)n2CCOC | 9.45
COc1ccccc1-n1cc(-c2ccccc2)[nH]c1=S | 19.4
O=C(NCCNc1ccc([N+](=O)[O-])cc1)c1cccs1 | -13.9
COc1ccc(S(=O)(=O)N2CCC(C(=O)NCCN3CCOCC3)CC2)cc1OC | 15
O=C(Nc1ccc(O)cc1C(=O)O)c1cccs1 | 16.6
CC1CCN(S(=O)(=O)c2ccc(NC(=O)Cn3nnc(-c4ccccc4)n3)cc2)CC1 | 11.9
Cc1ccc(CNC(=O)C2CCCN(c3ncnc4c3nc3n4CCCCC3)C2)cc1 (stereo not drawn) | -49
CC1CCN(CCNC(=S)Nc2ccc(Cl)cc2)CC1 | -65.7
